# According to PubChem BioAssay AID540317 (National Center for Advancing Translational Sciences (NCATS), 2011):
# Screen size: about 390,000 compounds; about 2,200 (0.56%) were called active. Inconclusive means that the source gave no clear call. Such entries were picked first, then a sample of the others. Calls come from the whole dose curve; as a rule, active = well fitted inhibition curve with a large enough effect; inconclusive = small, poorly fitted or top-dose-only effect; inactive = no such curve, though single readings can be large or run the other way. Where the call is inconclusive, the potency comes from a doubtful curve fit.
# Target: Chromobox protein homolog 1 (Homo sapiens) (UniProt P83916)
# Experiment: HTS for Inhibitors of HP1-beta Chromodomain Interactions with Methylated Histone Tails; note: nearly all actives have a fitted effect of over 70% in size
# Details: AlphaScreen HP1-beta / biotin-H3K9me3 peptide binding; series mostly up to 114 µM
# Procedure, shortened: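 Compound inhibition of the preformed complex between 50 nM HP1-beta and 50 nM biotinylated H3K9me3 peptide was read by AlphaScreen. Buffer was PBS pH 7.4 with 0.01% Tween-20. Incubations ran 30 min at room temperature, with 10 ug/mL donor/acceptor beads.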
# Potency is the fitted concentration of half-maximal effect; tags give direction and shape of the fitted curve.
# UniProt P83916, sequence (P83916 whole entry, looked up): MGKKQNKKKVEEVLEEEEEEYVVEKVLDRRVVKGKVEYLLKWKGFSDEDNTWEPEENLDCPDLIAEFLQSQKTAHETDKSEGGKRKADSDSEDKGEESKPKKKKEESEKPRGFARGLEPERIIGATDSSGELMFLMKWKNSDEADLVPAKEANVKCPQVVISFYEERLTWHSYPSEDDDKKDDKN
row,Compound,Potency
1,O=[N+]([O-])c1ccc(CN2CCN(c3ccccc3Cl)CC2)o1,"inconclusive: 15.8 µM [inhibitor, full curve, poor fit]"
2,Cc1ccc(N/N=C/c2cccnc2)cc1,"inconclusive: 79.4 µM [inhibitor, single point]"
3,CCOC(=O)CN1C(=O)S/C(=C/c2cccc([N+](=O)[O-])c2O)C1=O,"inconclusive: 50.1 µM [inhibitor, partial curve]"
4,COc1cc(C(=O)OCc2cc(=O)n3ccsc3n2)cc(OC)c1OC,inactive
5,Oc1cccc(CN2CCOCC2)c1O,active: 70.8 µM
6,Fc1ccc(CN2CCN(c3ncccn3)CC2)cc1,"inconclusive: 56.2 µM [inhibitor, partial curve]"
7,CCC1=Nc2cc(C(=O)N3CCC(C)CC3)ccc2Sc2ccc(C)cc21,inactive
8,COC(=O)c1cc(CNC(=O)C(C)NS(=O)(=O)c2ccc(C)c(C)c2)ccc1OC (configuration not stated),inactive
9,Cc1ccc(C(c2cc(Cl)c3cccnc3c2O)N2CCN(C)CC2)cc1 (configuration not stated),"inconclusive: 10 µM [inhibitor, partial curve, poor fit]"
10,CN(C)c1ccc(/C=N/n2cnn(Cc3ccccc3Cl)c2=S)cc1,"inconclusive: 35.5 µM [inhibitor, partial curve, poor fit]"
11,O=C(COC(=O)c1cc(-c2cccs2)nc2ccccc12)NCc1ccco1,inactive
12,Cn1c(=O)c(Nc2ccc(Cl)cc2)c2c3c(cccc31)C(=O)c1ccccc1-2,"inconclusive: 50.1 µM [inhibitor, partial curve]"
13,COc1ccc(CN2CCN(Cc3ccc(OC)c(OC)c3OC)CC2)cc1,"inconclusive: 35.5 µM [inhibitor, partial curve]"
14,Cc1c(NC(=O)CSc2ccccc2Cl)c(=O)n(-c2ccccc2)n1C,inactive
15,CN(C)c1cccc(C(=O)NCCCSc2ccccc2)c1,"inconclusive: 44.7 µM [inhibitor, partial curve]"
16,COc1ccc(N2CC(c3nc(-c4ccccc4C)no3)CC2=O)cc1Cl (configuration not stated),inactive
17,CC1CCCC/C1=N\NC(=S)Nc1cccnc1 (configuration not stated),"inconclusive: 89.1 µM [inhibitor, single point]"
18,Nc1cccc(Cl)c1N1CCOCC1,"inconclusive: 39.8 µM [inhibitor, single point]"
19,N#Cc1c(/N=C/c2cc3ccccc3s2)sc2c1CCC2,"inconclusive: 20 µM [inhibitor, partial curve, poor fit]"
20,COCCCNCCOCCOc1ccc(C)cc1[N+](=O)[O-],"inconclusive: 79.4 µM [inhibitor, single point]"
21,COc1cccc(NC(=O)C(NCC(C)(C)CN(C)C)c2ccccc2)c1 (configuration not stated),"inconclusive: 22.4 µM [inhibitor, full curve]"
22,O=C(NNC(=S)NC(=O)c1ccco1)c1ccc(F)cc1,inactive
23,O=C1/C(=C\c2ccc(O)cc2)SC(=S)N1Cc1ccccc1,"inconclusive: 35.5 µM [inhibitor, partial curve]"

row,Compound,Potency
1,COc1ccccc1-c1ncnn1-c1sc2c(c1C#N)CCCCC2,"inconclusive: 12.6 µM [inhibitor, full curve, poor fit]"
2,CCOc1ccc(CN2CCC(C(=O)N3CCN(c4ccccc4F)CC3)CC2)cc1OC,"inconclusive: 89.1 µM [inhibitor, single point]"
3,Cn1c(=O)nc2n(Cc3ccccc3)c3ccccc3cc-2c1=O,inactive
4,COc1ccc(-c2cn(-c3ccc(C)cc3C)c(=S)[nH]2)cc1OC,"inconclusive: 20 µM [inhibitor, partial curve, poor fit]"
5,CCN(CC)S(=O)(=O)c1ccc(/C=C/C(=O)OCC(=O)NCc2ccco2)cc1,"inconclusive: 50.1 µM [inhibitor, partial curve, poor fit]"
6,CC(=O)c1cc2c(cc1NC(=O)CN1CCCCCCC1)OCO2,"inconclusive: 22.4 µM [inhibitor, full curve]"
7,COc1ccc(CN2CCN(C(=O)c3ccccc3F)CC2)c(OC)c1OC,"inconclusive: 44.7 µM [inhibitor, partial curve]"
8,Cc1ccc(-n2c(=O)c3cc4c(=O)n(-c5ccc(C)c(C)c5)c(=O)c4c(C(=O)c4ccc(C(=O)O)cc4)c3c2=O)cc1C,"inconclusive: 50.1 µM [inhibitor, partial curve, poor fit]"
9,O=C(CCNC(=O)c1ccc([N+](=O)[O-])cc1)Nc1nccs1,inactive
10,O=[N+]([O-])c1ccc(N/N=C/c2c[nH]c3ccccc23)c(S(=O)(=O)Nc2ccc(Cl)cc2)c1,"inconclusive: 70.8 µM [inhibitor, partial curve, poor fit]"
11,N#C/C(=C\c1coc2ccc(O)cc2c1=O)C(=O)Nc1nc2ccccc2s1,"inconclusive: 22.4 µM [inhibitor, partial curve]"
12,C/C(N)=C(/C#N)C(=O)CSc1nc2ccccc2[nH]1,"inconclusive: 39.8 µM [inhibitor, full curve]"
13,NC1=NC(=O)/C(=C/c2cccc(-c3ccc(S(N)(=O)=O)cc3)c2)S1,inactive
14,COc1ccc(NC(=O)c2c(NC(=O)CNCC(C)C)sc3c2CCC3)c(OC)c1,inactive
15,CCCC(NC(=O)Cc1c(C)c2cc3c(C)c(C)oc3c(C)c2oc1=O)C(=O)N[C@@H](Cc1ccccc1)C(=O)O (some centres not stated),"inconclusive: 50.1 µM [inhibitor, partial curve]"
16,CCOC(=O)/C(=N\Nc1ccccc1[N+](=O)[O-])c1csc(Nc2ccccc2)n1,"inconclusive: 10 µM [inhibitor, full curve]"
17,COc1ccc(OCC(=O)N2CCCC(CO)(CCOc3ccccc3)C2)cc1 (configuration not stated),inactive
18,Cc1c(Cl)cccc1N/C(=N/S(=O)(=O)c1cccs1)c1ccccc1,inactive
19,CC(=O)CCc1ccc(OCCCCN2CCC(Cc3ccccc3)CC2)cc1,"inconclusive: 79.4 µM [inhibitor, single point]"
20,Cc1nn2c(c1-c1ccc(Cl)cc1)N=C(c1ccco1)CC2c1ccccc1 (configuration not stated),"inconclusive: 20 µM [inhibitor, full curve]"
21,O=C1NC(c2cccc(Br)c2)=N/C1=C\c1ccco1,inactive
22,O=c1[nH]c(-c2ccncc2)nc2ccccc12,"inconclusive: 44.7 µM [inhibitor, partial curve]"
23,Cc1[nH][nH]c(=O)c1C(c1ccc(-c2cccc(C(=O)O)c2)o1)c1c(C)[nH][nH]c1=O,"inconclusive: 79.4 µM [inhibitor, partial curve]"

row,Compound,Potency
1,CCn1ccnc1CN(C)Cc1cn(-c2ccc(C)cc2)nc1-c1ccc(F)cc1,"inconclusive: 44.7 µM [inhibitor, partial curve, poor fit]"
2,CCOc1ccc(OCCCC(=O)N2CCN(S(=O)(=O)c3ccc(Cl)cc3)CC2)cc1,"inconclusive: 89.1 µM [inhibitor, single point]"
3,CC(=O)c1ccc(N/N=C(/C(N)=O)C2=NC(C)(C)Cc3ccccc32)cc1,"inconclusive: 50.1 µM [inhibitor, partial curve]"
4,Cc1c2ccncc2cc2c1[nH]c1ccccc12,inactive
5,Fc1ccc(C2Nc3cccc4cccc(c34)N2)cc1,"inconclusive: 50.1 µM [inhibitor, partial curve, poor fit]"
6,COc1ccc(N2CCN(CCCNC(=O)Cn3c(=O)c4cccn4c4ccccc43)CC2)cc1,"inconclusive: 39.8 µM [inhibitor, partial curve, poor fit]"
7,CCOc1ccc(N2C(=O)CC(Sc3n[nH]c(-c4ccccc4)n3)C2=O)cc1 (configuration not stated),"inconclusive: 56.2 µM [inhibitor, single point]"
8,Cc1ccccc1CN(C)CCc1ccccn1,"inconclusive: 14.1 µM [inhibitor, partial curve, poor fit]"
9,COc1cc(NC(=O)Cc2cccs2)cc(OC)c1,"inconclusive: 8.91 µM [inhibitor, single point]"
10,Oc1ccc(Br)cc1/C=N/NC(=S)NCCc1ccccc1,"inconclusive: 20 µM [inhibitor, partial curve, poor fit]"
11,CCOc1ccc(Oc2nc(NC)nc(N3CCOCC3)n2)nn1,inactive
12,S=C(c1ccc(-c2ccccc2)o1)N1CCCCC1,"inconclusive: 35.5 µM [inhibitor, partial curve, poor fit]"
13,O=C(/C=C/c1ccco1)NCC(=O)N/N=C/c1ccc([N+](=O)[O-])cc1,"inconclusive: 6.31 µM [inhibitor, full curve, poor fit]"
14,O=C(c1ccc(-c2cccc(C(F)(F)F)c2)o1)N1CCCC(C(F)(F)F)C1 (configuration not stated),inactive
15,CCCCNc1c(-c2cccc(-c3cc(C(C)=O)cs3)c2)nc2ccc(C)cn12,inactive
16,O=C(C1CCCN(Cc2ccncc2)C1)N1CCc2ccccc2C1 (configuration not stated),"inconclusive: 31.6 µM [inhibitor, full curve]"
17,CC1CCCN(c2ccc(F)cc2N)C1 (configuration not stated),"inconclusive: 39.8 µM [inhibitor, partial curve, poor fit]"
18,C/C(=N\Nc1cccc(C(=O)O)c1)c1ccc2c(c1)Nc1ccccc1S2,"inconclusive: 79.4 µM [inhibitor, single point]"
19,O=C1c2ccccc2C(=O)c2c1cccc2N1CCCC1,"inconclusive: 2.51 µM [inhibitor, full curve, poor fit]"
20,O=C(O)c1ccc2c(c1)[C@@H]1C=CC[C@@H]1[C@H](c1ccccn1)N2,"inconclusive: 35.5 µM [inhibitor, partial curve, poor fit]"
21,Cn1c(N)c(C(=O)COC(=O)/C=C/c2ccc(Cl)c(Cl)c2)c(=O)n(C)c1=O,inactive
